# Reference: patent publication US8415399B2, “Retrovirus-infection inhibitor” (Nagasaki University, priority 2006, dated 2013)
# Read-outs that look alike come from different tables or passages of the source.
# Test system: CXCR4-tropic HIV-1 (HXB2) vector
# Conditions: for HIV vector infection (qualitative): NP2/CD4/X4, TE671/CD4 and HeLa/CD4 cell, various concentrations
# Protocol: pLP1; pLP2, pLenti6/V5-GW/LacZ and HXB2 env plasmid DNA (each 3 μg) were transfected to 293T cells, cultured in a 10 cm culture dish, according to a lipofection method (Mirus or Invitrogen). After 24 hr, the medium was exchanged with a fresh medium. […] CXCR4-tropic HIV vector was present in the culture medium.
# HIV vector was inoculated and the cells were cultured for 24 hr. The medium was exchanged with a fresh medium and the cells were further cultured for 24 hr. The cells were fixed with glutaraldehyde and stained with X-Gal overnight. The cells stained blue was counted and the value was used as an infectivity titer.
# Fenretinide was added to Dulbecco-modified Eagle medium (Sigma Ltd. or Wako) containing 2% fetal bovine serum and antibiotic to various concentrations, and the target cells were cultured for 2 days at 37° C. in the presence of 5% CO2. HIV vector (culture supernatant containing HIV vector, mentioned above) was inoculated to the cells and the infectivity titer was measured.
compound,measurement,setting,value
"CC(C)=CCC/C(C)=C/CC/C(C)=C/CC/C(C)=C/C(=O)O [GGA, geranylgeranoic acid]",HIV vector infection (qualitative),,suppress HIV vector infection in a concentration-dependent manner
same,HIV-1 vector infection suppressed to (relative to untreated),"NP2/CD4/X4 cell, 20 μM, Example 3",10%
"CC1=C(/C=C/C(C)=C/C=C/C(C)=C/C(=O)Nc2ccc(O)cc2)C(C)(C)CCC1 [fenretinide, 4-Hydroxyphenylretinoid, reference compound]",HIV vector infection (qualitative),,suppressed infectious property of HIV vector in a concentration-dependent manner
same,HIV-1 vector infection suppressed to (relative to untreated),"NP2/CD4/X4 cell, 2 μM, Example 3",40%
CC(C)=CCC/C(C)=C/CC/C(C)=C/C=C/C(C)=C/C(=O)O [NIK-333],HIV vector infection (qualitative),,have an HIV vector infection suppressive action
same,HIV-1 vector infection decreased to (relative to untreated),"NP2/CD4/X4 cell, 5 μM, Example 3",20%
